In patent US12123010B2, “Plants having increased tolerance to herbicides” (BASF SE, priority 2017, dated 2024):

System: Transgenic T2 or T3 Soybean plants harbouring PPO inhibitor tolerance trait and Jake non transgenic
Test: Soybean greenhouse post spray, injury score 7 DAT
Type: in vivo
Protocol: Soybean cv Jake is transformed as previously described by Siminszky et al., Phytochem Rev. 5:445-458 (2006). After regeneration, transformants are transplanted to soil in small pots, placed in growth chambers (16 hr day/8 hr night; 25° C. day/23° C. night; 65% relative humidity; 130-150 microE m-2 s-1) and subsequently tested for the presence of the T-DNA via Taqman analysis. After a few weeks, healthy, transgenic positive, single copy events are transplanted to larger pots and allowed to grow in the growth chamber. An optimal shoot for cutting is about 3-4 inches tall, with at least two nodes present. Each cutting is taken from the original transformant (mother plant) and dipped into rooting hormone powder (indole-3-butyric acid, IBA). The cutting is then placed in oasis wedges inside a bio-dome. The mother plant is taken to maturity in the greenhouse and harvested for seed. Wild type cuttings are also taken simultaneously to serve as negative controls. The cuttings are kept in the bio-dome for 5-7 days and then transplanted to 3 inch pots and then acclimated in the growth chamber for two more days. Subsequently, the cuttings are transferred to the greenhouse, acclimated for approximately 4 days prior to spray. […] Herbicide injury evaluations are taken at 2, 7, 14 and 21 days after treatment.
Transgenic T2 or T3 Soybean plants harbouring PPO inhibitor tolerance trait, were sprayed post in the greenhouse with the indicated amount of uracilpyridine+1% (v/v) MSO. Evaluation performed 7 Days After Treatment (DAT) and shown as injury (0-9) relative to non-transgenic treated plants. Injury Scale: 0-9, 0=no imjury, 9=maximum injury. Note: segregating lines.

SMILES: CCOC(=O)COc1ncccc1Oc1cc(-n2c(=O)cc(C(F)(F)F)n(C)c2=O)c(F)cc1Cl [Uracilpyridine 1, ethyl 2-[[3-[2-chloro-4-fluoro-5-[3-methyl-2,6-dioxo-4-(trifluoromethyl)pyrimiclin-1-yl]phenoxy]-2-pyridyl]oxy]acetate]
- injury (0-9) ([…], 25 g/ha + 1% MSO, individual plants, segregating lines): 1 (Minimal injury, only a few patches of leaf injury or chlorosis.)
- injury (0-9) (soybean Jake non transgenic, 25 g/ha + 1% MSO): 9 (Plant is dead.)
- injury (0-9) (soybean Jake non transgenic, 50 g/ha + 1% MSO): 9 (Plant is dead.)
- injury (0-9) (soybean Jake non transgenic, 100 g/ha + 1% MSO): 9 (Plant is dead.)
- injury (0-9) (soybean Jake non transgenic, 200 g/ha + 1% MSO): 9 (Plant is dead.)
